Reference: PubChem BioAssay AID485294 (National Center for Advancing Translational Sciences (NCATS), 2010)
Hit rate of the full screen: of about 370,000 compounds, about 150 (0.041%) were called active. Inconclusive results, whose numbers are uncertain, are shown with a selection of clear calls. Calls come from the whole dose curve; as a rule, active = well fitted inhibition curve with a large enough effect; inconclusive = small, poorly fitted or top-dose-only effect; inactive = flat fitted curve, though single readings scatter. Potencies of inconclusive entries are left out as doubtful fits.

Target: Beta-lactamase (Escherichia coli (strain K12)) (UniProt P00811)
Assay: qHTS Inhibitors of AmpC Beta-Lactamase (assay with detergent); note: nearly all actives have a fitted effect of over 25% in size
Settings: AmpC hydrolysis of nitrocefin, absorbance 480 nm, 0.01% Triton; series mostly up to 114 µM
Method in brief: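 20 mM phosphate pH 7.0 + 0.01% (detergent screen) or 0.0001% Triton X-100; 5.3 nM AmpC reagent; cpd preinc 15 min RT; nitrocefin (800 uM stock) to start; A480 q20 s × 4 min; Activity was normalised to no-enzyme and no-compound control wells.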
Potency is the fitted concentration of half-maximal effect; tags give direction and shape of the fitted curve.

Sequence of UniProt P00811 (P00811 whole entry, looked up): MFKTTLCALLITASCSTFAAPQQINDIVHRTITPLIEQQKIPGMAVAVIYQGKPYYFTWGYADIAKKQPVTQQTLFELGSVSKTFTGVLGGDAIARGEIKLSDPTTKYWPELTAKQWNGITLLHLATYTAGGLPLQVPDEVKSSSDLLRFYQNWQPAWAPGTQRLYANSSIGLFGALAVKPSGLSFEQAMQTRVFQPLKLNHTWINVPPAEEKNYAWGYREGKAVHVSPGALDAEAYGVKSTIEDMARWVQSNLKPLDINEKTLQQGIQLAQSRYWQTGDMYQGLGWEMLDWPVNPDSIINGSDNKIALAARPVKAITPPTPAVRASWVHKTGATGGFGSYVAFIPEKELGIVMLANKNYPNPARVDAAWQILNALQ

| Compound | Potency |
| --- | --- |
| CC(C)c1nnc(-c2ccc(Cl)cc2)c(N(C)C)n1 | inactive |
| CCOc1ccc(Br)cc1S(=O)(=O)N1CCSC1 | inconclusive [inhibitor, partial curve, poor fit] |
| O=[N+]([O-])c1cc2c(cc1/C=N/NS(=O)(=O)c1ccc(Br)cc1)OCO2 | inconclusive [inhibitor, full curve, poor fit] |
| Cc1ccc(CNC(=O)CCC(=O)N2CC(C)Sc3ccccc32)cc1 (stereo unspecified) | inconclusive [inhibitor, partial curve, poor fit] |
| CCN1CCN(Cc2ccc(C)cc2)CC1 | inactive |
| Cc1cccc(-c2nnc(SCc3cc(=O)[nH]c4ccccc34)n2C)c1 | inactive |
| CCOC(=O)c1cccc(NC(=O)CCCn2c(C)c3cnn(-c4ccccc4)c(=O)c3c2C)c1 | inactive |
| CCc1ccccc1N(CC(=O)N1CCN(c2ccc(F)cc2)CC1)S(C)(=O)=O | inconclusive [inhibitor, partial curve, poor fit] |
| CCN(CC)c1ccc(NC(=O)c2cncc(Br)c2)cc1 | inconclusive [inhibitor, full curve] |
| O=C1c2cccc3cc([N+](=O)[O-])cc(c23)C(=O)N1CC1CCCO1 (stereo unspecified) | inactive |
| CCN(CC)CC(=O)N1c2ccccc2CCc2ccc(NC(=O)c3cc(OC)c(OC)c(OC)c3)cc21 | inactive |
| c1ccc(SCc2cn3cccnc3n2)nc1 | inactive |
| CCOc1ccc(-c2cc(N)n(S(=O)(=O)c3ccc(OC)c(OC)c3)n2)cc1 | inactive |
| CN=C(N)NCCC[C@H](N)C(=O)O | inconclusive [inhibitor, single point] |
| COc1ccc(C2=Nc3ccc(Br)cc3C(c3ccccc3)N2CC(=O)NN)cc1 (stereo unspecified) | inconclusive [inhibitor, full curve, poor fit] |
| COc1ccc(-c2nnc(SCc3ccc(C(=O)O)cc3)o2)cc1OC | inconclusive [inhibitor, partial curve] |
| Cn1c(-c2ccccc2)c(C(=O)CC#N)c2ccccc21 | inactive |
| COc1ccc(Cc2nnc(NC(=O)c3ccc(OC)cc3OC)s2)cc1 | inconclusive [inhibitor, partial curve] |
| O=C1c2ccccc2C(Nc2cccnc2)N1Cc1ccccc1 (stereo unspecified) | inconclusive [inhibitor, full curve, poor fit] |
| CCC(C)[C@H](NC(=O)N1CC(=O)Nc2ccccc21)C(=O)N1CCC[C@@H]1C(=O)O (stereo partly specified) | inconclusive [inhibitor, full curve, poor fit] |
| COC(=O)c1ccc(COC(=O)c2cc3ccccc3oc2=O)cc1 | inactive |
| Cc1cc(C)cc(NC(=O)N2CCC(NC(=O)c3ccc(F)cc3)CC2)c1 | inconclusive [inhibitor, full curve, poor fit] |
| Cc1ccc2nc(N(CCCN(C)C)C(=O)c3ccc(Br)s3)sc2c1 | inactive |

| Compound | Potency |
| --- | --- |
| C=CCNC(=O)C1CC(=O)N(c2ccc(OCC(=O)Nc3ccc(C)cc3)cc2)C1 (stereo unspecified) | inconclusive [inhibitor, partial curve] |
| Cn1cnnc1Sc1ccc(C(=O)OCC(=O)NC2CC2)cc1[N+](=O)[O-] | inconclusive [inhibitor, full curve, poor fit] |
| O=C(Nc1ccc(F)cc1F)N1CCN(CCc2ccccc2)CC1 | inactive |
| NS(=O)(=O)c1cccc(NC(=O)CSc2nn(-c3ccccc3)c(=S)s2)c1 | inconclusive [inhibitor, partial curve, poor fit] |
| Cc1cccc(C)c1NC(=S)NN1CCN(C)CC1 | inactive |
| O=C(NCC1CCCO1)c1ccc(S(=O)(=O)N2CCC(c3nc4ccc(Cl)cc4[nH]3)CC2)cc1 (stereo unspecified) | inconclusive [inhibitor, full curve, poor fit] |
| CC(=O)Nc1ccc(NC(=O)C(C)OC(=O)c2ccc(-n3cnnn3)cc2)cc1 (stereo unspecified) | inconclusive [inhibitor, full curve, poor fit] |
| COc1ccc(Br)cc1C1CC(=O)N2CN(C)CSC2=C1C#N (stereo unspecified) | inconclusive [inhibitor, full curve, poor fit] |
| O=c1[nH]c(N/N=C/c2ccc(O)cc2)nc2ccccc12 | inactive |
| COc1cccc(CNc2ccccn2)c1O | inconclusive [inhibitor, partial curve, poor fit] |
| COc1ccc(N(Cc2ccccc2)C(=O)c2nc(SC)ncc2Cl)cc1 | inactive |
| CCCCNC(=O)CSc1nc2ccccc2nc1Cc1ccc(Cl)cc1 | inactive |
| Cc1c([N+](=O)[O-])c([N+](=O)[O-])nn1CC(=O)N1CCCCC1 | inactive |
| Cc1ccc(C2N3CC4([N+](=O)[O-])CN2CC([N+](=O)[O-])(C3)C4(C)C)cc1 (stereo unspecified) | inconclusive [inhibitor, full curve, poor fit] |
| CC(C)[C@H](NC(=O)N1CCn2c1nc1ccccc12)C(=O)N[C@@H](C(=O)O)c1ccccc1 | inconclusive [inhibitor, partial curve, poor fit] |
| CCOC(=O)c1c(-c2ccc(C)cc2C)csc1NC(=O)CSc1nnnn1C | inconclusive [inhibitor, partial curve, poor fit] |
| Cc1ccc(OCCC(=O)Nc2ccccc2C(=O)N2CCCCC2)cc1 | inconclusive [inhibitor, full curve] |
| FC(F)(F)c1ccc(C2[C@H]3CN(Cc4cccnc4)[C@H](c4ccccc4)C34CC2(c2ccccc2)C4)cc1 (stereo partly specified) | inactive |
| CC(NC(=O)c1cccc(OC2CCN(C3CCN(C)CC3)CC2)c1)c1ccccc1 (stereo unspecified) | inactive |
| Cc1cc(O)c(NC(=O)c2cccc([N+](=O)[O-])c2)cc1C | inactive |
| Cc1cc(C)cc(NC(=O)CSc2nc(=O)n3cc(C)ccc3n2)c1 | inconclusive [inhibitor, full curve, poor fit] |
| Cc1ccc(-c2cc3ncc(C#N)c(N)n3n2)cc1 | inactive |
| O=C(NC1=NCCS1)c1ccccc1Cl | inconclusive [inhibitor, full curve, poor fit] |
